Assay results taken from the supplement of paper PMC3334620.
Over roughly 33,000 sequences, “E-score (-0.5 to 0.5)” has its median near -0.017; the highest 2% begin near 0.3. The list shows a part of the results.

Each sequence was assayed against T1, Sut1 (UniProt P53032) (assay: PBM E-score (8-mer binding enrichment) (E-score (-0.5 to 0.5)); higher = stronger / more preferred TF binding; most listed sequences are background and not binding sites). Conditions: protein concentration: 200 nM; construct: GST-full length.
T1 sequence: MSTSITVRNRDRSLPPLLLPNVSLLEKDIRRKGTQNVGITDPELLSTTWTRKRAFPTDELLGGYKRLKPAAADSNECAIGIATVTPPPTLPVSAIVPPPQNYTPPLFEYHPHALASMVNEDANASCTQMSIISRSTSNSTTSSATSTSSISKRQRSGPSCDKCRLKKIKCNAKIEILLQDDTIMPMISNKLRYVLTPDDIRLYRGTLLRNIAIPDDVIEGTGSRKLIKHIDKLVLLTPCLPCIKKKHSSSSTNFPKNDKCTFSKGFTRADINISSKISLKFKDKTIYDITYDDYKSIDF
Procedure, shortened: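 Masliner-normalised scans of fluorescent anti-GST signal were the basis for scoring. That signal came from GST-tagged yeast transcription factors applied at about 100-200 nM to double-stranded universal all-10-mer Agilent arrays on fresh or once-stripped slides. Each ungapped eight-base word, pooled with its reverse complement, received an E-score from the Universal PBM Analysis Suite.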

Going from ATGCTCTC to CTTAAGGA, the “PBM E-score” value rises from -0.0653 to 0.0985.

First: GTTCGAAC
Second: AGTCGAAG
The “PBM E-score” value of the first is higher: 0.187 for the first, -0.117 for the second.

Compared with CTACGGGA, ATACCCGC is higher in “PBM E-score” value: -0.196 for the first, -0.104 for the second.

First: ACCTCGCT
Second: AGGAACCC
The “PBM E-score” value of the first is higher: -0.0849 for the first, -0.246 for the second.

Going from CCTATTTA to ACCGCACT, the “PBM E-score” value falls from 0.137 to -0.0137.

Compared with CAACAGGA, AATAACAG is higher in “PBM E-score” value: -0.18 for the first, 0.0803 for the second.

First: CTGACCCA
Second: CGCTCTTA
The “PBM E-score” value of the first is lower: -0.26 for the first, 0.159 for the second.

Compared with GCGGCACC, GCAAGTTA is higher in “PBM E-score” value: -0.0756 for the first, 0.076 for the second.

Compared with GCTGCGAC, CCCGTTGC is higher in “PBM E-score” value: -0.199 for the first, -0.105 for the second.

Going from TGTGCACA to CCGTTAGA, the “PBM E-score” value rises from -0.101 to 0.251.

Compared with GCAGACGA, ATACGACG is higher in “PBM E-score” value: -0.0356 for the first, 0.151 for the second.

Compared with CAACGTAG, AAGTTAGC is higher in “PBM E-score” value: -0.081 for the first, 0.11 for the second.

Compared with ATATTCCG, CGCGGAGC is higher in “PBM E-score” value: 0.221 for the first, 0.26 for the second.

Going from GGTTTGAA to CATAGTGC, the “PBM E-score” value falls from 0.233 to 0.115.

Going from GTCCGAAA to ACACCCGT, the “PBM E-score” value falls from 0.447 to -0.212.

Going from GGGCTATA to CGCAAGGA, the “PBM E-score” value rises from -0.139 to -0.105.

Going from AGTGTGTC to ATTAGAGA, the “PBM E-score” value rises from -0.0702 to -0.0252.

Compared with CGAACAAG, CCAGTCAG is lower in “PBM E-score” value: -0.0249 for the first, -0.0847 for the second.

Compared with GCATGATA, ACCACTAA is lower in “PBM E-score” value: 0.158 for the first, 0.121 for the second.

Going from AAGGTGGT to ACGACAAT, the “PBM E-score” value rises from -0.0441 to 0.159.

Going from AAGTGGGT to ACATTCGC, the “PBM E-score” value falls from -0.0361 to -0.171.

Going from AAGAGTAG to AAGCGCGT, the “PBM E-score” value falls from 0.0714 to -0.167.

Going from TGAGGAAA to CGTGAAGC, the “PBM E-score” value falls from 0.125 to -0.224.

Going from ACCAACGT to ACGGCTAC, the “PBM E-score” value rises from 0.00237 to 0.0166.

Compared with CAGTTAAG, CCGGACCC is higher in “PBM E-score” value: 0.0683 for the first, 0.217 for the second.

Compared with ATGAAAAA, AAGGACGC is lower in “PBM E-score” value: 0.255 for the first, -0.0986 for the second.

Compared with ACCGGTCT, AGTTTCAG is higher in “PBM E-score” value: -0.115 for the first, 0.0405 for the second.

Compared with GAGATGCC, ATCAATAC is higher in “PBM E-score” value: -0.0982 for the first, 0.103 for the second.

Compared with GACAACGA, TAGGTCGA is lower in “PBM E-score” value: 0.104 for the first, -0.0499 for the second.

First: CCCTTATC
Second: GGCCCCTA
The “PBM E-score” value of the first is higher: -0.0965 for the first, -0.332 for the second.

Compared with CTTTAGCC, CTGTGAAC is lower in “PBM E-score” value: 0.171 for the first, 0.0291 for the second.

First: CGTTCGTC
Second: CATCGTGA
The “PBM E-score” value of the first is higher: 0.00113 for the first, -0.0974 for the second.

Going from ATAGTGGA to AGAGCTCC, the “PBM E-score” value falls from 0.0992 to 0.0174.

Compared with ACAAACGG, ATACAACA is higher in “PBM E-score” value: 0.128 for the first, 0.233 for the second.

Compared with GTAGGCTA, ATCGGCAG is higher in “PBM E-score” value: -0.101 for the first, -0.0399 for the second.

Compared with ACTCACTA, GTAGATCA is higher in “PBM E-score” value: 0.0485 for the first, 0.0626 for the second.

First: GAGATAAC
Second: CGAGTAGC
The “PBM E-score” value of the first is higher: 0.132 for the first, -0.106 for the second.

Compared with GTAAGTAA, ATACAGAC is higher in “PBM E-score” value: 0.185 for the first, 0.203 for the second.

Going from ATAGAGAC to CGGCGACC, the “PBM E-score” value falls from -0.0323 to -0.101.

First: CTTATTCC
Second: AGCTTCAC
The “PBM E-score” value of the first is higher: 0.138 for the first, -0.0282 for the second.

Going from TACCTGGA to TGAAGTAA, the “PBM E-score” value rises from -0.0523 to 0.0486.

First: AAAAGATC
Second: AGCGCCAC
The “PBM E-score” value of the first is higher: -0.00606 for the first, -0.217 for the second.

Compared with ATCAGGAG, GAGCTCCC is lower in “PBM E-score” value: 0.044 for the first, -0.239 for the second.

Going from ACTTAACC to ACGCGCTC, the “PBM E-score” value falls from 0.191 to -0.0328.

First: CACCATGG
Second: GTAATCTA
The “PBM E-score” value of the first is lower: -0.222 for the first, 0.234 for the second.

Going from ATCTACAA to AAGGGGAC, the “PBM E-score” value falls from 0.128 to -0.255.

Going from ACATGCGC to AATAAATT, the “PBM E-score” value rises from -0.115 to 0.237.

First: TGCTATAA
Second: AAGTGGAC
The “PBM E-score” value of the first is higher: 0.144 for the first, 0.00685 for the second.

First: ATAGTGAG
Second: CACATGCA
The “PBM E-score” value of the first is higher: -0.0473 for the first, -0.122 for the second.

Going from ATCAGGTA to AGCCTAAA, the “PBM E-score” value rises from -0.0474 to 0.121.

Compared with CCCTGTCG, AGCAACTG is higher in “PBM E-score” value: -0.266 for the first, -0.0572 for the second.

First: ACTAAAAT
Second: TCGGACGA
The “PBM E-score” value of the first is higher: 0.244 for the first, 0.0715 for the second.

First: CTATTCCA
Second: GTCCTGAA
The “PBM E-score” value of the first is higher: 0.125 for the first, -0.16 for the second.

Compared with ATGCGGCG, AATCCAGA is higher in “PBM E-score” value: -0.233 for the first, 0.163 for the second.

Going from CAGAAGAA to CTGGACAC, the “PBM E-score” value falls from 0.0645 to -0.227.

Going from AACATTCT to AAACTGTT, the “PBM E-score” value rises from 0.102 to 0.241.

Compared with AACTCGTG, AGCCCGGG is higher in “PBM E-score” value: -0.127 for the first, 0.0766 for the second.

Compared with AATCGCCC, AGGATCAT is higher in “PBM E-score” value: -0.218 for the first, -0.11 for the second.

First: GCGGGGTA
Second: CTAAATAA
The “PBM E-score” value of the first is lower: -0.0426 for the first, 0.206 for the second.

First: TACAATGA
Second: GGTGAGGA
The “PBM E-score” value of the first is higher: 0.153 for the first, -0.0793 for the second.

First: GCAATCAA
Second: ATTACCCC
The “PBM E-score” value of the first is higher: 0.134 for the first, -0.003 for the second.

Compared with CCGCGACA, GCTACTAC is higher in “PBM E-score” value: -0.0973 for the first, 0.199 for the second.

First: ATTTGGAC
Second: TAGCAAGA
The “PBM E-score” value of the first is higher: 0.14 for the first, -0.0814 for the second.

Compared with AAGCACGT, CGGTCATA is higher in “PBM E-score” value: -0.108 for the first, 0.0613 for the second.

First: ATAGCGGC
Second: ATATTAGC
The “PBM E-score” value of the first is lower: -0.127 for the first, 0.13 for the second.

AGGTCACG and GGTAGGAC are the same in “PBM E-score” value: -0.186 for the first, -0.186 for the second.

First: AATGACAC
Second: CCTAGCAC
The “PBM E-score” value of the first is higher: -0.00894 for the first, -0.111 for the second.

Going from CAATTACA to ACCACCGC, the “PBM E-score” value falls from 0.178 to 0.0358.

Going from CCGGACAG to CATAGAGA, the “PBM E-score” value falls from 0.241 to -0.00333.

Compared with CCCGGAAG, CCCGCCTC is lower in “PBM E-score” value: 0.206 for the first, -0.301 for the second.

Compared with AGACGCTA, AATGGCAA is higher in “PBM E-score” value: -0.162 for the first, 0.0477 for the second.

First: CGGAAATC
Second: ACTATAGC
The “PBM E-score” value of the first is higher: 0.212 for the first, -0.106 for the second.

First: ACGTTCAC
Second: CTGTACAC
The “PBM E-score” value of the first is higher: -0.0111 for the first, -0.0995 for the second.

Going from TAAGATTA to CTCGACGC, the “PBM E-score” value falls from 0.092 to -0.0325.

First: CCATCTAC
Second: CCAGATGG
The “PBM E-score” value of the first is higher: 0.00483 for the first, -0.267 for the second.

Compared with ATTAATGC, CGCAAAGA is higher in “PBM E-score” value: -0.0368 for the first, 0.0658 for the second.

Going from CACAAGAG to GCTGCTCA, the “PBM E-score” value falls from -0.0826 to -0.176.

First: ATGGATCG
Second: ACCCGCTC
The “PBM E-score” value of the first is higher: 0.0974 for the first, -0.445 for the second.

Going from GAATGCAC to CACCGCTG, the “PBM E-score” value falls from 0.117 to -0.261.

First: AGAACTAC
Second: GAAGCCAA
The “PBM E-score” value of the first is lower: 0.0481 for the first, 0.0605 for the second.

Compared with CAGCATGC, ATGGCTCG is higher in “PBM E-score” value: -0.231 for the first, -0.126 for the second.

First: ATCCTTCC
Second: TGCGCGCA
The “PBM E-score” value of the first is lower: -0.295 for the first, -0.29 for the second.

Compared with CTCACTCA, CGACAAGA is lower in “PBM E-score” value: 0.12 for the first, 0.042 for the second.

First: ATAGGGAA
Second: GGCACTCA
The “PBM E-score” value of the first is higher: 0.0196 for the first, -0.374 for the second.

Compared with TAATTAGA, AATGCCGG is lower in “PBM E-score” value: 0.218 for the first, 0.151 for the second.

Going from AGCCATTA to GTCAGCAA, the “PBM E-score” value falls from 0.075 to 0.0566.
